# Laboratory results taken from paper PMC4336329 (PLoS ONE, 2015).
# Out of some 310,000 compounds screened, about 14,000 (4.5%) showed an effect of 50% or more. The effect is printed as a negative number. The list shows a part of the results.
# Target: human ether-à-go-go-related gene (hERG) potassium channel (human, UniProt Q12809)
# Experiment: primary screen, population patch clamp on CHO cells stably expressing hERG
# 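Note: peak tail current of the secondary pulse compared with the same well before compound.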
# Sequence of human ether-à-go-go-related gene (hERG) potassium channel (Q12809 whole entry, looked up): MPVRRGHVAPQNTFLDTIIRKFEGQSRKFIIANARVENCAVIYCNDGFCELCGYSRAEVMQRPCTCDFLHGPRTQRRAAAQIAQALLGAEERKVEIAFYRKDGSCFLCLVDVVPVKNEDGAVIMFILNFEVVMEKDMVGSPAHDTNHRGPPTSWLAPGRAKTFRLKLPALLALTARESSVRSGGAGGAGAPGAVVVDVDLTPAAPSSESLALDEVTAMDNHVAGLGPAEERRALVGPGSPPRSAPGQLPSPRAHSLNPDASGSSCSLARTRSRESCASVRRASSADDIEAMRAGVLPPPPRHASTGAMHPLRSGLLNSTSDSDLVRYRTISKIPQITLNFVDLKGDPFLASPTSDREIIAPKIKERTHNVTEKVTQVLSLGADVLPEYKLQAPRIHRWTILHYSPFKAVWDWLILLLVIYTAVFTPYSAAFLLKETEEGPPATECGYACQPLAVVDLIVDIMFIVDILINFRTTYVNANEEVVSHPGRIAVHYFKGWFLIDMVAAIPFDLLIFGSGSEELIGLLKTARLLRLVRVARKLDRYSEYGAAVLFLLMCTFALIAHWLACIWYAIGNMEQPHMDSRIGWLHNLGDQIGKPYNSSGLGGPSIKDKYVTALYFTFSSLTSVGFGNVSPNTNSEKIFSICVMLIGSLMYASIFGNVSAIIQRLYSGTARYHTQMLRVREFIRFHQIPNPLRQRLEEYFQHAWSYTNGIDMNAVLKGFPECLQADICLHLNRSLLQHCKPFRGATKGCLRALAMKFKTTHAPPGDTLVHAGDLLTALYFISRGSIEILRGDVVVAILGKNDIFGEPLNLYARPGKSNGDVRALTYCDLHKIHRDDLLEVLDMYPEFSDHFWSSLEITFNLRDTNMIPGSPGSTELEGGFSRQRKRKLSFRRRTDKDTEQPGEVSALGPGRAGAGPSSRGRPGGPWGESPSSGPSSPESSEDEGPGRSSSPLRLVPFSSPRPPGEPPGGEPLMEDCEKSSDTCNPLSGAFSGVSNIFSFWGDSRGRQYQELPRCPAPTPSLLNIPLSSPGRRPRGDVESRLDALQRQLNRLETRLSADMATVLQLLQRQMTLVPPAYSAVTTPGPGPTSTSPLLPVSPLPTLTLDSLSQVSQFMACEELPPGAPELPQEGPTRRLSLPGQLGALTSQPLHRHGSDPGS
row,Compound,"hERG current change (%, negative = inhibition) at 10uM [%]"
1,CC(=O)C1C(c2ccc(Cl)cc2)NC(=O)NC1(O)C(F)(F)F (stereo not shown),18.5
2,CCC(ONc1ccccc1C(F)(F)F)(C(=O)NN(C)C)c1ccccc1 (stereo not shown),-1.27
3,CCOc1ccc(N(C(=O)c2cnsn2)C(C(=O)NC2CCCCC2)c2ccncc2)cc1 (stereo not shown),-69.4
4,O=C(OCc1cc(-c2ccccc2)no1)c1ccc2ccccc2n1,12.2
5,COc1ccc(OC)c(C2C(C(N)=O)=C(C)Nc3nc(CCCO)nn32)c1 (stereo not shown),14.8
6,Cc1cc(C)n(CC(=O)Nc2ccc([N+](=O)[O-])cc2)n1,17.7
7,O=[N+]([O-])/C=C/c1c(OCc2ccccc2)ccc2ccccc12,-1.12
8,Cc1cc(=O)oc(C)c1C(=O)NCC(C)NC(=O)c1c(C)cc(=O)oc1C (stereo not shown),5.83
9,C=CCOC(=O)C1=C(C)Nc2nnnn2C1c1cccs1 (stereo not shown),-1.74
10,CC(=O)c1cccc(NC(=O)C2=CC(c3ccco3)=NS(=O)(=O)N2C)c1,5.29
11,CC(=O)NCCc1cc2cc(C)c(C)cc2[nH]c1=O,10.6
12,O=C(NCc1ccc(F)cc1)C1CCCN(S(=O)(=O)c2ccc(-n3cnnn3)cc2)C1 (stereo not shown),19.3
13,CN(c1ccccc1)c1nc(N)c([N+](=O)[O-])c(N2CCCCC2)n1,-15.6
14,Cc1n[nH]c(C)c1Sc1ccccc1[N+](=O)[O-],-5.07
15,CC(C)=CC[N+]1(C)CCCCC1.[Br-],13.5
16,CCC(C)OC(=O)c1[nH]c2c(c1C)C(=O)CC(c1ccc(N(C)C)cc1)C2 (stereo not shown),0.609
17,CCC(C)NC(=O)C1CCN(S(=O)(=O)c2ccc3[nH]c(=O)ccc3c2)CC1 (stereo not shown),5.87
18,COc1ccc(-c2nnc(SCC(=O)N3CCOCC3)o2)cc1OC,-0.537
19,Cc1ccc(S(=O)(=O)Nc2c(C)n(C)n(-c3ccccc3)c2=O)cc1C(=O)NCc1ccccn1,14.7
20,COCCn1c(SCC(=O)Nc2ccccc2F)nc2c(c1=O)SCC2,-12.3
21,COc1ccc(C(=O)Nc2sc3c(c2C#N)CCN(C(C)=O)C3)cc1,-21
22,CCN(CC)CCCNC(=O)CSc1nc2c(c(C(F)(F)F)n1)CCc1ccccc1-2,-52.2
23,O=C(CN1C(=O)CCC1=O)Nc1ccc(Cc2ccc(NC(=O)CN3C(=O)CCC3=O)cc2)cc1,29
24,COCCNC(=O)C(OC(=O)CC1Sc2ccccc2NC1=O)c1ccccc1 (stereo not shown),-5.27
25,COc1ccc(/C=C/C(=O)NC2CCS(=O)(=O)C2)cc1 (stereo not shown),10.5
26,CCCNC(=O)Nc1cccc(C(=O)OC)c1,-3.04
27,CCOC(=O)N(CC)OC(=O)Nc1ccc(Cl)cc1,-10.1
28,COc1ccc(N2CCN(C(=O)c3ccc(Cl)c(S(=O)(=O)N4CCCC4)c3)CC2)cc1,-31.6

row,Compound,"hERG current change (%, negative = inhibition) at 10uM [%]"
1,CN(Cc1nc2ccccc2c(=O)[nH]1)C(=O)c1cccc(S(=O)(=O)N2CCCCCC2)c1,-26.1
2,CC1=C(C(=O)NCc2ccc3c(c2)OCO3)C2(CCC(C)CC2)OC1=O (stereo not shown),-17.8
3,CCOC(=O)C1C(=O)CC(C)(O)C(C(=O)OCC)C1c1ccccc1 (stereo not shown),-13.1
4,Cc1ccc(NC(=O)CN(C)S(=O)(=O)c2cccs2)cc1F,-2.2
5,O=c1cc(-c2ccccc2)nc(Sc2ccc([N+](=O)[O-])cc2[N+](=O)[O-])[nH]1,17.3
6,O=C(NCc1cccc(Cl)c1)c1ccc2c(c1)OCO2,0.973
7,O=C(CCS(=O)(=O)c1ccc(Br)cc1)NCCC1=CCCCC1,9.16
8,Cc1ccc(Cl)cc1N1CCN(CC(=O)NC2CCCc3ccccc32)CC1 (stereo not shown),2.75
9,CCCCCC1CC(CC(=O)Nc2nncs2)C(=O)O1 (stereo not shown),-8.91
10,N#C/C(=C(/O)COC(=O)c1ccc(C#N)cc1)c1nc2ccccc2s1,-1.4
11,CC(C)CC(=O)NC(NC(=S)Nc1sc2c(c1C#N)CCCC2)C(Cl)(Cl)Cl (stereo not shown),21.8
12,COCCCNC(=O)c1ccc2c(c1)ncn2-c1ccccc1OC,-1.73
13,CCOC(=O)C1=C(C)N(CCCCCC(=O)O)C(=O)NC1c1ccccc1Cl (stereo not shown),-11.1
14,COc1ccc(CN2C(=O)N(c3ccc(OC)cc3)C(=O)C2CC(=O)Nc2ccccc2)cc1 (stereo not shown),12.6
15,COc1ccc(C2SCC(=O)N2c2ccc(F)cc2)cc1 (stereo not shown),20.8
16,CCCCC(C(=O)O)C(C)CC(=O)Nc1cccc(C(=O)O)c1 (stereo not shown),8.68
17,CCOc1ccc(S(=O)(=O)N2CCN(Cc3ccc4c(c3)OCO4)CC2)cc1C,-13
18,CCCCOC(=O)c1ccc(NC(=O)c2cc(Cl)c(Cl)cc2C(=O)O)cc1,10.4
19,COc1ccccc1CNC(=O)C1CCCN(S(=O)(=O)c2cccc3nonc23)C1 (stereo not shown),-5.13
20,COc1ccccc1CNC(=O)c1c(-c2ccccc2Cl)noc1C,-4.95
21,O=C(O)c1nc(-c2ccccc2)n(-c2cccc(C(F)(F)F)c2)n1,3.49
22,Cc1ccc(C2=NC(C(F)(F)F)(C(F)(F)F)c3c(n(-c4ccc(F)cc4)c(=O)[nH]c3=O)N2)cc1,-16.6
23,Cc1cccc(C)c1NC(=S)NC(=O)c1ccccc1F,0.697
24,Cc1ccc(C(=O)Nc2cccc(-c3nc4ncccc4o3)c2)cc1,6.79
25,COc1cccc2cc(-c3cc(=O)oc4ccc(O)cc34)oc12,6.22
26,COC(=O)Cc1nnc(Nc2cccc(C)c2)c2ccccc12,-6.22
27,CN1CCN(NC(=O)Nc2ccc(Br)cc2)CC1,-20.6
